# Out of some 360,000 compounds screened, about 6,000 (1.7%) were called active. Inconclusive results, whose numbers are uncertain, are shown with a selection of clear calls. Calls come from the whole dose curve; as a rule, active = well fitted cell-killing curve with a large enough effect; inconclusive = small, poorly fitted or top-dose-only effect, or effect the other way; inactive = flat fitted curve, though single readings scatter. No potency is given beside an inconclusive call; the fits are too rough.
# Experiment: qHTS for induction of synthetic lethality in tumor cells producing 2HG: qHTS for the HT-1080-NT fibrosarcoma cell line;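 note: NT is the 2HG producing partner of a matched IDH1 knockdown line; nearly all actives have a fitted effect of over 55% in size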;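 for activity, negative = less viability: 0% = DMSO-treated cells and -100% = media-only wells without cells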
# Conditions: HT-1080-NT fibrosarcoma viability, CellTiter-Glo ATP luminescence, 48 h; activity, negative = less viability: at 46.1 µM (top of the series) unless noted
# How it was run: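 HT-1080-NT fibrosarcoma cells (2HG-overproducing), 750 cells/well in RPMI with 5% FBS, dosed after 2 h and incubated 48 h at 37C. CellTiter-Glo luminescence normalized to DMSO and no-cell wells; concentration-response curves fitted and classed.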
# Potency is the fitted concentration of half-maximal effect; tags give direction and shape of the fitted curve.
SMILES,Potency,"activity, negative = less viability"
Cc1onc(-c2c(F)cccc2Cl)c1C(=O)Nc1sc2c(c1C(N)=O)CCC2,active: 11.2 µM,–
CCOc1ccc(-c2csc(/C(C#N)=C\c3ccc(O)c([N+](=O)[O-])c3)n2)cc1,active: 14.6 µM,–
O=C(NCCNC(=O)c1ccccc1Cl)c1ccco1,inactive,–
COc1ccc(NC(=S)NC(NC(=O)c2cccc3ccccc23)C(Cl)(Cl)Cl)c([N+](=O)[O-])c1 (stereo unspecified),inactive,–
COc1ccc(C(=S)N2CCN(c3cccc(Cl)c3)CC2)c(OC)c1,"inconclusive [cytotoxic, full curve]",–
Cc1ccsc1/C=N/NC(=O)C1C(=O)NCC1c1ccccc1 (stereo unspecified),inactive,–
CCn1c2ccccc2c2cc(NC(=O)CNCc3ccccc3OC)ccc21,active: 3.66 µM,–
COc1cccc(/C=C/C(=O)NCCc2ccc(OC)c(OC)c2)c1,inactive,–
CN(C(=O)C(C)(C)C)c1ccc(OCC(=O)N2CCc3ccccc3C2)cc1,"inconclusive [cytotoxic, partial curve]",–
Cc1cc(NC(=O)CSc2nnnn2C)n(-c2ccccc2)n1,inactive,–
NS(=O)(=O)c1ccc(NC2=CC(=O)C(=O)c3ccccc32)cc1,"inconclusive [cytotoxic, full curve]",–
O=[N+]([O-])c1ccc(Cl)c(NC(=S)N2CCCC2)c1,"inconclusive [rising, partial curve]",–
O=C(O)c1cccc(O)c1O,–,inconclusive: 31.5%
CS(=O)(=O)Nc1ccc(C(=O)Nc2ccccc2Sc2ccccc2)cc1,inactive,–
CC(=O)N1CCN(C(=O)CCCNC(=O)c2ccc(Cl)cc2)CC1,inactive,–
CN(Cc1ccccc1)C1=CC(=[N+]2CCCC2)CC(C)(C)C1,–,inconclusive: -14% [cytotoxic]
NS(=O)(=O)c1cccc(NC(=O)c2cccc(-c3ccc(O)cc3)c2)c1,"inconclusive [cytotoxic, partial curve]",–
O=Cc1cc(N=Nc2ccccc2Cl)ccc1O,"inconclusive [cytotoxic, single point]",–
Cc1ccc(S(=O)(=O)N2CCOCC2)cc1NC(=O)c1cc(-c2ccccn2)nc2ccccc12,"inconclusive [cytotoxic, single point]",–
Cc1nc2ccccc2c2c1CC(C(C)(Cl)Br)O2 (stereo unspecified),"inconclusive [cytotoxic, partial curve]",–
C/C(=N/NC(=O)c1nnn(-c2nonc2N)c1COc1ccccc1)c1ccc(O)cc1,inactive,–
Cc1ccnc(NC(=O)c2oc3ccccc3c2C)c1,inactive,–
COc1ccc(OCC(=O)N2c3ccccc3CC2C)c([N+](=O)[O-])c1 (stereo unspecified),inactive,–
COc1ccccc1NC(=O)c1c(C)oc2c1CCCC2,–,inconclusive: 32.4%
CCOC(=O)c1[nH]cnc1C(=O)Nc1ccccc1OC,–,inconclusive: 1.96%
CC(=O)NC(c1cccc(F)c1)c1nc(-c2cc3ccccc3o2)cs1 (stereo unspecified),"inconclusive [cytotoxic, single point]",–

SMILES,Potency,"activity, negative = less viability"
C=C1CCC[C@]2(C)C[C@H]3OC(=O)C(CN(Cc4ccc(OC)c(OC)c4)CC(C)O)[C@H]3CC12 (stereo partly specified),"inconclusive [cytotoxic, partial curve]",–
Cc1ccc(Cl)c(OCCCN(C)Cc2ccccc2)c1,"inconclusive [cytotoxic, single point]",–
CC(C)Nc1nc(Nc2ccc(Cl)cc2F)c2sccc2n1,"inconclusive [cytotoxic, single point]",–
CCc1cc2c(Sc3nc4ccccc4s3)ncnc2s1,active: 5.17 µM,–
Nc1nnc(-c2ccncc2)s1,inactive,–
CC1(C)C[C@@H]2C[C@@](C)(CN2C(=O)c2cc(COc3cccc(C(F)(F)F)c3)on2)C1,inactive,–
COc1ccc(/C=N/NC(=S)Nc2cc(S(=O)(=O)N3CCOCC3)ccc2N2CCOCC2)cc1O,active: 20.6 µM,–
CC(=O)N1CCN(Cc2nc3ccc(Cl)cc3n2CCO)CC1,inactive,–
Cc1ccc(S(=O)(=O)Nc2cccc(-c3cn4ccsc4n3)c2)cc1,"inconclusive [cytotoxic, single point]",–
CCOC(=O)C(C)C(C)=O (stereo unspecified),"inconclusive [cytotoxic, full curve, poor fit]",–
O=C(Nc1cc(Cl)ccc1N1CCCCC1)c1cccs1,inactive,–
O=S(=O)(CC(CN1CCCC1)N1CCCC1)c1ccc2ccccc2c1 (stereo unspecified),active: 16.4 µM,–
Cc1ccc(-c2noc(CSc3nnnn3-c3ccccc3)n2)cc1,"inconclusive [cytotoxic, single point]",–
CCN(CC)c1ccc(NC(=O)CCN2C(=O)c3ccccc3S2(=O)=O)c(C)c1,inactive,–
Cc1ccccc1CS(=O)(=O)c1nnc([C@H](Cc2ccccc2)NC(=O)OC(C)(C)C)o1,active: 5.01 µM,–
C[C@@H]1CN([C@@H](C)CO)C(=O)c2cc(C#Cc3ccccc3)cnc2O[C@@H]1CN(C)Cc1ccccn1,inactive,–
Cc1ccc2c(c1C)-c1c(ccc(C)c1C)C(=O)C2=O,active: 5.8 µM,–
Cc1ccc2c(c1)C(=O)N1[C@H]3c4cc(Cl)ccc4OC[C@@H]3[C@H](c3ccccc3)[C@]1(C)C(=O)N2,inactive,–
O=C(O)c1ccc(N/N=C/C2=C(N3CCOCC3)C(=C\c3ccccc3)/CC2)cc1,active: 14.6 µM,–
Oc1ccc2ccccc2c1CNc1ccc2ccccc2c1,"inconclusive [cytotoxic, single point]",–
Cc1ccc(C2C(/C=C3/SC(=S)NC3=O)=C(c3cccs3)Oc3ccccc32)cc1 (stereo unspecified),"inconclusive [cytotoxic, single point]",–
CCCC(=O)c1ccc(OCc2cn(CC(=O)c3ccc(O)cc3)nn2)cc1,"inconclusive [cytotoxic, single point]",–
CCOC(=O)c1[nH]c(C)c(C(=O)N2CCc3ccccc32)c1C,"inconclusive [cytotoxic, full curve]",–
Cc1noc(C)c1COc1ccccc1C(=O)Nc1cccc(S(=O)(=O)N(C)C)c1,inactive,–
CC(C)Cc1ccc(C(C)CC2=CCC(CN(C)C)C2=O)cc1 (stereo unspecified),"inconclusive [cytotoxic, single point]",–

# From PubChem BioAssay AID686970 (National Center for Advancing Translational Sciences (NCATS), 2013)
